This is an account of results in PMC4336329 (PLoS ONE, 2015).

The structures appear in SMILES notation. Hit rate of the full screen: of about 310,000 compounds, about 14,000 (4.5%) showed an effect of 50% or more. Effects have a minus sign here. The list shows a part of the results.
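Also: peak tail current of the secondary pulse compared with the same well before compound.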

Sequence of human ether-à-go-go-related gene (hERG) potassium channel (Q12809 whole entry, looked up): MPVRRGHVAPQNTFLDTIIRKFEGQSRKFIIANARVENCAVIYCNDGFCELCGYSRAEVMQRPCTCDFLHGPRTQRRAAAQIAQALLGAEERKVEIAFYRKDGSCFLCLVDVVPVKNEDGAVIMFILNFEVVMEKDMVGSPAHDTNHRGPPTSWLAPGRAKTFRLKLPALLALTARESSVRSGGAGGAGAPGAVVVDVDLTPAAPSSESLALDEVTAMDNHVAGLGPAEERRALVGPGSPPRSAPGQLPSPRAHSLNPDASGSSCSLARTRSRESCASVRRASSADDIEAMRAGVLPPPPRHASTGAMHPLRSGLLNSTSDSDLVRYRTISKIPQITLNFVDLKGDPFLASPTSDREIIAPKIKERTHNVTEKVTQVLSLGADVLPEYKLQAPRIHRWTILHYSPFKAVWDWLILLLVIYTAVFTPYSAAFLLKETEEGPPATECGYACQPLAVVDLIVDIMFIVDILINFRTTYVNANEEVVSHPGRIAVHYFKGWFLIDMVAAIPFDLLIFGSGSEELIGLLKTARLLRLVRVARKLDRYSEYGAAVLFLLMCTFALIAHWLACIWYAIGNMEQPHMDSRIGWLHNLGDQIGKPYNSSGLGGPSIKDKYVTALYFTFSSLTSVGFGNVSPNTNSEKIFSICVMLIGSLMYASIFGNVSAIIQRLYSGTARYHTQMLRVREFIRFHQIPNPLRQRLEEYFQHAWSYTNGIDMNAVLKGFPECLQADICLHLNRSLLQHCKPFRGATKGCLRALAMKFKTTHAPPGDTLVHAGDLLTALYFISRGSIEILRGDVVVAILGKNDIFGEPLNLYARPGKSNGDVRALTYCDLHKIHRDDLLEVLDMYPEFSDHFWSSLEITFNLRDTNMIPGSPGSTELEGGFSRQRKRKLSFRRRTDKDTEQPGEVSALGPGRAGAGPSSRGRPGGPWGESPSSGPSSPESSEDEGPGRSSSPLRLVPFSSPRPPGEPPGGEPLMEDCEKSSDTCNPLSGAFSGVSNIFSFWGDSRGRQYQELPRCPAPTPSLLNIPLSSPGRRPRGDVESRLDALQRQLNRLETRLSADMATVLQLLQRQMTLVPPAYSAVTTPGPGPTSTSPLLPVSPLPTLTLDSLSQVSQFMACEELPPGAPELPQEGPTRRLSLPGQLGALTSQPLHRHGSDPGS

The assay has as its target human ether-à-go-go-related gene (hERG) potassium channel (human, UniProt Q12809). Nature of the assay: primary screen, population patch clamp on CHO cells stably expressing hERG.
On to `COCCNC(=O)C(c1ccc(Cl)cc1)N(CCOC)C(=O)CCC(=O)Nc1ccccn1` (stereo not shown), for which the “hERG current change (%, negative = inhibition) at 10uM” value was -1.76%.
Consider `O=C(Nn1c(SCc2cccc([N+](=O)[O-])c2)nc2ccccc2c1=O)c1ccccc1`, for which the “hERG current change (%, negative = inhibition) at 10uM” value is recorded as -1.31%.
As for `S=C(NCCN1CCOCC1)Nc1cccc(Cl)c1`, the “hERG current change (%, negative = inhibition) at 10uM” value is on record as -10.9%.
For `COc1ccc(/C=C/C(=O)Oc2ccc(/C=N/NC(=O)c3ccncc3)cc2)cc1`, the “hERG current change (%, negative = inhibition) at 10uM” value is on record as -7.6%.
For the compound `Cn1c(=O)c(S(=O)C2CCCCC2)c(O)c2ccccc21` (stereo not shown), the “hERG current change (%, negative = inhibition) at 10uM” value turned out to be 7.79%.
For the compound `CC1CCN(S(=O)(=O)c2cc(F)ccc2CN2C(=O)c3cccnc3C2=O)CC1`, the “hERG current change (%, negative = inhibition) at 10uM” value is given as -60.4%.
Consider `Cc1ccc(Cn2nc(C)c(/C=N/NC(=O)c3cccnc3)c2C)cc1`, for which the “hERG current change (%, negative = inhibition) at 10uM” value is reported as -4.88%.
For `Cc1ncc(CN2CCCC(CCC(=O)NCc3ccccc3F)C2)s1` (stereo not shown), the “hERG current change (%, negative = inhibition) at 10uM” value amounted to 17.8%.
The same measure for `COc1ccc(CNC(=S)Nc2cccc(C)c2C)cc1`: -1.56%; for `CC1OC(OCC2OC(Oc3c(-c4ccc(O)cc4)oc4cc(O)cc(O)c4c3=O)C(O)C(O)C2O)C(O)C(O)C1O` (stereo not shown): 13.7%.
With `COc1ccccc1N1CCN(C(=O)c2ccc(Cl)c(S(=O)(=O)NCc3ccco3)c2)CC1`, the “hERG current change (%, negative = inhibition) at 10uM” value was -14.2%.
Under `COC(=O)C1=C(c2ccc(F)cc2F)C[C@@H]2CC[C@H]1N2C` stands 8.44%.
As for `Fc1cccc(CN2CCN(c3ncccn3)CC2)c1`, the “hERG current change (%, negative = inhibition) at 10uM” value is listed as -6.63%.
The same measure for `O=C1OC(N2CCN(Cc3ccccc3)CC2)c2ccccc21` (stereo not shown): 15.4%; for `COc1cc(C2C(C(C)=O)=C(O)C(=O)N2CCN2CCOCC2)ccc1O` (stereo not shown): 4.41%.
Under `Cc1ccc(S(=O)(=O)c2nnn3c2nc(N2CCC(C(N)=O)CC2)c2ccccc23)cc1` stands -0.198%; under `N#C/C(=C\c1ccc(OCCN2CCOCC2)cc1)C(=O)Nc1ccccc1`, -5.42%; under `COc1ccc(C(=O)NC2=C(C#N)CCC2)cc1OC`, 9.08%.
`O=C(NNS(=O)(=O)c1ccccc1F)c1cccc(S(=O)(=O)N2CCOCC2)c1`: the “hERG current change (%, negative = inhibition) at 10uM” value is on record as -4.04%.
On to `CC[C@@H](C)C(N)c1cn([C@@H](CCC(=O)O)C(=O)N2CCNCC2)nn1.Cl` (stereo partly shown), for which the “hERG current change (%, negative = inhibition) at 10uM” value came to 9.17%.
Regarding `COc1cccc(NC(=O)CN(C)C(=O)CCCNC(=O)c2ccc(Cl)cc2)c1`, the “hERG current change (%, negative = inhibition) at 10uM” value was -46.5%.
On to `CN(C)CCN1C(=O)c2ccccc2C1=O`, for which the “hERG current change (%, negative = inhibition) at 10uM” value is 21.7%.
In the case of `COc1ccc(SCCc2ccncc2)cc1.Cl`, the “hERG current change (%, negative = inhibition) at 10uM” value is reported as -7.45%.
Under `CCOC(=O)C1(CCOC)CCN(Cc2ccc(COC)o2)CC1` stands 32.9%; under `COc1ccc(N2CCN(C(=O)c3ccc(CNc4c(N5CCOCC5)c(=O)c4=O)cc3)CC2)cc1`, -0.0849%.
On to `COc1ccc2cc(C(=O)NCc3ccccc3)[nH]c2c1.Cl`, for which the “hERG current change (%, negative = inhibition) at 10uM” value is reported as 21.2%.
The same measure for `COc1ccc2oc(=O)c(C(=O)NCc3ccccn3)cc2c1`: 3.99%.
Under `Cc1ccccc1N1CCN(C(=O)c2ccccc2NC(=O)c2ccccc2C(=O)O)CC1` stands 6.78%; under `Cc1sc2ncnc(N3CCC(C(=O)N(CC(C)C)c4nc5ccccc5s4)CC3)c2c1C`, -14.1%; under `CCOC(=O)c1ccc(NC2c3ccccc3C(=O)N2c2ccc(C)cn2)cc1` (stereo not shown), 6.97%.
In the case of `O=C(Cn1cc2c(n1)CCCCC2)N1CCc2ccccc2C1`, the “hERG current change (%, negative = inhibition) at 10uM” value was -3.95%.
`CCC1Sc2ccccc2N(CC(=O)NC2CC2)C1=O` (stereo not shown): the “hERG current change (%, negative = inhibition) at 10uM” value amounted to 7.59%.
Under `O=c1c2cc(Br)ccc2[nH]c(=S)n1-c1ccccc1` stands 27.5%.
`CC(C)(C)NC(=O)C(c1cccs1)N(Cc1ccco1)C(=O)c1csnn1` (stereo not shown): the “hERG current change (%, negative = inhibition) at 10uM” value is -1.46%.
For the compound `Brc1ccc(-c2csc(N3CCOCC3)n2)cc1`, the “hERG current change (%, negative = inhibition) at 10uM” value came to 20.7%.
In the case of `O=C(O)CCCNc1n[nH]c(=O)[nH]c1=O`, the “hERG current change (%, negative = inhibition) at 10uM” value is reported as 29.3%.
Take `CC(=O)Nc1ccc(S(=O)(=O)NCCSCc2ccc(Cl)cc2Cl)cc1`: the “hERG current change (%, negative = inhibition) at 10uM” value was determined as 7.59%.
As to `Cc1cc(CN(C)C(=O)c2cc(COc3ccc(C)c(C)c3)on2)n[nH]1`, the “hERG current change (%, negative = inhibition) at 10uM” value was -43.8%.
The same measure for `CCOP(=O)(C(NC(=O)c1ccccc1Cl)=C(Cl)Cl)c1ccccc1` (stereo not shown): 4.09%; for `CCCCn1c(-c2cccc(Br)c2)nc2cc3[nH]c(=O)c(C(C)C)nc3cc21`: 4.08%; for `CCOC(=O)N1CCN(c2c(NCc3ccc(N(C)C)cc3)c(=O)c2=O)CC1`: 9.96%.
Take `CCOC(=O)c1nnc(-c2ccccc2)nc1N1CCSCC1`: the “hERG current change (%, negative = inhibition) at 10uM” value is -31%.
Under `Cc1ccc(Cl)cc1NS(=O)(=O)c1ccc2oc(=O)ccc2c1` stands -25.7%.
With `CC1=CCC[C@@H]2[C@@](C)(CC/C(C)=C/C(=O)O)[C@H](C)CC[C@@]12C`, the “hERG current change (%, negative = inhibition) at 10uM” value was 12.6%.
As for `N/C(=N\OC(=O)c1ccccc1)c1ccncc1`, the “hERG current change (%, negative = inhibition) at 10uM” value came out at 2.02%.
For the compound `COC(=O)C1=CNC=C(C(=O)OC)C1c1ccccc1Cl`, the “hERG current change (%, negative = inhibition) at 10uM” value amounted to 6.02%.
In the case of `COc1ccc(S(=O)(=O)N[C@@H](Cc2ccc(Cl)cc2)C(=O)N2CC[C@@]3(O)CCCC[C@H]3C2)cc1`, the “hERG current change (%, negative = inhibition) at 10uM” value is -13.9%.
As to `Cc1nnc(N/N=C/c2c(O)n(-c3cccc(C(F)(F)F)c3)c(=O)c3ccccc23)[nH]c1=O`, the “hERG current change (%, negative = inhibition) at 10uM” value worked out at 8.06%.
The same measure for `O=C(O)CSCC(=O)NCc1ccccc1`: 10%.
The same measure for `Cc1nc(SCC(=O)N(C)C2CCS(=O)(=O)C2)c(C#N)c(C)c1C` (stereo not shown): -21.7%; for `CC(C)CNS(=O)(=O)c1ccc(CCC(=O)N2CCCC2)cc1`: 24.4%.
The same measure for `O=C(c1ccc(Cl)cc1)N1CCN(c2ncccn2)CC1`: 6.85%; for `CC(C)c1ccc(NC(=O)CCS(=O)(=O)c2cccc3nonc23)cc1`: 1.81%.
Turning to `COc1cc(CC(NC(C)=O)C(=O)NC2CCN(C(=O)Nc3ccccc3C)CC2)cc(OC)c1` (stereo not shown), the “hERG current change (%, negative = inhibition) at 10uM” value is -4.6%.
As to `COc1cc(-c2noc(C)c2/C=C/c2ccc(N)cc2)cc(OC)c1OC`, the “hERG current change (%, negative = inhibition) at 10uM” value was -18.5%.
